# Laboratory results from the supplement of paper PMC9135407.
# Several values for one entry are separate records, joined by “and”; a condition that tells them apart may be missing. Identical values can stand only once. Counter-ions that a name gives are not always drawn. In all, about 5,800 compounds went through this assay and about 620 (11%) showed activity.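 The calls were made as follows: active = score above a cut-off or among the top three wells of a plate; in these data no inactive exceeds 0.85.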 The entries are a selection whose mix differs from that of the whole data set.
# Tested on: primary human hepatic stellate cells (donor 1)
# Experiment: scaled lipid accumulation score (0 = DMSO-like, 1 = nortriptyline-like); higher = stronger HSC inactivation (lipid re-accumulation), active = hit call of the paper
# Conditions: 48 h
# [1] = library stock concentration: 3.33 mM
# [2] = library stock concentration: 10 mM
# [3] = library stock concentration: 1 mM
compound,measurement,setting,value
CCN(CCCc1ccccc1)CCCc1ccccc1 [Alverine Citrate],scaled lipid accumulation score,[1],inactive: 0.189
same,scaled lipid accumulation score,[2],inactive: 0.661
CC(=O)[C@H]1CC[C@H]2[C@@H]3CC=C4C[C@@H](OC(=O)CCC(=O)O)CC[C@]4(C)[C@H]3CC[C@]12C,scaled lipid accumulation score,[2],inactive: ≤ 0
CC(CCc1ccc(O)cc1)NCC(O)c1ccc(O)cc1 (stereo not given),scaled lipid accumulation score,[2],inactive: ≤ 0
CC(CCc1ccc(O)cc1)NCC(O)c1ccc(O)cc1 (stereo not given) [Ractopamine],scaled lipid accumulation score,library stock concentration: 6.6 mM,inactive: ≤ -0.006
O=P(O)(O)C(O)(Cc1cccnc1)P(=O)(O)O [Risedronic acid],scaled lipid accumulation score,library stock concentration: 7.1 mM,inactive: 0.045
O=S(=O)(NO)c1ccccc1 [Piloty's Acid],scaled lipid accumulation score,[3],inactive: ≤ 0
O=C(Nc1ccc2[nH]ncc2c1)C1CCC1 [Rhodblock 6],scaled lipid accumulation score,[2],inactive: 0.092
N[C@@H](Cc1ccc(F)cc1)C(=O)O [p-Fluoro-L-phenylalanine],scaled lipid accumulation score,[2],inactive: ≤ -0.07
Nc1nccc2c1ncn2[C@@H]1O[C@H](CO)[C@@H](O)[C@H]1O [3-deazaadenosine],scaled lipid accumulation score,[2],inactive: ≤ -0.07
COc1cc2nc(N3CCN(C(=O)c4ccco4)CC3)nc(N)c2cc1OC [Prazocin],scaled lipid accumulation score,library stock concentration: 13 mM,active: 1.03
O=C(O)c1cc(O)c(O)c(O)c1 [Gallic acid],scaled lipid accumulation score,[2],inactive: ≤ 0
same,scaled lipid accumulation score,library stock concentration: 11.8 mM,inactive: ≤ -0.001
CCN(CC)C(=O)N1CCN(C)CC1 [Diethylcarbamazine citrate],scaled lipid accumulation score,,inactive: ≤ 0
same,scaled lipid accumulation score,library stock concentration: 5.1 mM,inactive: 0.024
same,scaled lipid accumulation score,[2],inactive: ≤ 0
Cc1c(O)cccc1C(=O)N[C@@H](CSc1ccccc1)[C@H](O)CN1C[C@H]2CCCC[C@H]2C[C@H]1C(=O)NC(C)(C)C [Nelfinavir Mesylate],scaled lipid accumulation score,library stock concentration: 3 mM,inactive: ≤ 0
same,scaled lipid accumulation score,[1],inactive: ≤ 0
same,scaled lipid accumulation score,[2],inactive: 0.835
Cc1c(O)cccc1C(=O)N[C@@H](CSc1ccccc1)[C@H](O)CN1C[C@H]2CCCC[C@H]2C[C@H]1C(=O)NC(C)(C)C,scaled lipid accumulation score,[2],inactive: 0.197
Cc1c(O)cccc1C(=O)N[C@@H](CSc1ccccc1)[C@H](O)CN1C[C@H]2CCCC[C@H]2C[C@H]1C(=O)NC(C)(C)C [Nelfinavir mesylate hydrate],scaled lipid accumulation score,[2],inactive: ≤ -0.07
CCSc1ccc2c(c1)N(CCCN1CCN(C)CC1)c1ccccc1S2 [Thiethylperazine malate],scaled lipid accumulation score,,inactive: 0.362
Nc1ccn([C@@H]2O[C@H](CO)[C@@H](O)[C@H]2O)c(=O)n1 [Cytidine],scaled lipid accumulation score,[1],inactive: ≤ 0
same,scaled lipid accumulation score,[2],inactive: 0.017
CC(C)CCC[C@@H](C)[C@H]1CC[C@H]2[C@@H]3CC=C4C[C@@H](O)CC[C@]4(C)[C@H]3CC[C@]12C [Cholesterol],scaled lipid accumulation score,library stock concentration: 5.2 mM,inactive: ≤ 0
CC(C)NCCCn1c(Sc2cc3c(cc2I)OCO3)nc2c(N)ncnc21,scaled lipid accumulation score,[1],inactive: 0.728
Cc1cccc(Nc2nc(-c3ccncc3)cs2)c1,scaled lipid accumulation score,[3],inactive: ≤ 0
CN(C)CCC(c1ccccc1)c1ccccn1 (stereo not given) [Pheniramine maleate],scaled lipid accumulation score,,inactive: 0.036
same,scaled lipid accumulation score,[2],inactive: 0.061 and inactive: ≤ 0
CN(C)CCC(c1ccccc1)c1ccccn1 (stereo not given) [Pheniramine Maleate],scaled lipid accumulation score,[1],inactive: ≤ 0
same,scaled lipid accumulation score,[2],inactive: 0.212
CCOc1ccc(Cc2cc([C@@H]3O[C@H](CO)[C@@H](O)[C@H](O)[C@H]3O)ccc2Cl)cc1 [Dapagliflozin],scaled lipid accumulation score,[1],inactive: ≤ 0
same,scaled lipid accumulation score,[2],inactive: ≤ 0
"CCCCC[C@H](O)/C=C/[C@@H]1[C@H]2C/C=C\CCCC(=O)O[C@H]2C[C@H]1O [Prostaglandin F2.alpha. 1,9-lactone]",scaled lipid accumulation score,[3],inactive: ≤ 0
CN(C)CCN1C(=O)c2cccc3cc(N)cc(c23)C1=O [Amonafide],scaled lipid accumulation score,[1],inactive: 0.468
same,scaled lipid accumulation score,[2],inactive: 0.186
COc1ccc2cc1Oc1ccc(cc1)C[C@H]1c3c(cc4c(c3Oc3cc5c(cc3OC)CCN(C)[C@@H]5C2)OCO4)CCN1C [Cepharanthine],scaled lipid accumulation score,[2],active: 0.944
O=c1cc(CN2CCOCC2)occ1OCCCCCSc1ccnc2cc(C(F)(F)F)ccc12,scaled lipid accumulation score,[1],inactive: ≤ -0.009
same,scaled lipid accumulation score,[2],inactive: 0.475
COc1ccc(/C=C2\COc3ccc(C)cc3C2=O)cc1O,scaled lipid accumulation score,[2],inactive: 0.275
"COC1=C(OC)C(=O)c2ccccc2C1=O [2,3-Dimethoxy-1,4-naphthoquinone]",scaled lipid accumulation score,[2],inactive: 0.634
O[C@@H]1CO[C@H]2[C@@H]1OC[C@@H]2O [Isosorbide],scaled lipid accumulation score,[1],inactive: ≤ 0
same,scaled lipid accumulation score,[2],inactive: ≤ -0.001
CC(=O)c1ccc2c(c1)N(CCCN1CCN(CCO)CC1)c1ccccc1S2,scaled lipid accumulation score,[2],inactive: 0.638
CS(=O)(=O)c1ccc(Cn2c3c(c4cc(F)cc(F)c42)CCCC3CC(=O)O)cc1 (stereo not given),scaled lipid accumulation score,[2],inactive: ≤ -0.006
